The results in this text go back to publication PMC7156725, “Cardiolipin is required in vivo for the stability of bacterial translocon and optimal membrane protein translocation and insertion” (Scientific Reports, 2020).

Data set [1] concerns the molecule itself. Put plainly: native gel or EMSA; BN-PAGE (4-15% gel) and Western blot of inner membranes of wild-type E. coli W3110 solubilised with 2% digitonin (1 μg digitonin/μg protein); endogenous proteins; 25 μg of IM protein a lane. A general note: Mobility shift assays separate free from complexed probe on a gel.
Data set [2] deals with the molecule itself. Put plainly: native gel or EMSA; BN-PAGE (4-15% gel) and Western blot of inner membranes of the cardiolipin-lacking E. coli mutant BKT12 ΔclsABC solubilised with 2% digitonin (1 μg digitonin/μg protein); endogenous proteins.

B1: SecA (translocation ATPase) (enzyme)
chain: not shown
notes: SecA, E. coli, translocation ATPase, peripheral component of the translocon; endogenous
What is called stoichiometry N is the number of molecules, sites or subunits per partner or assembly. For the protein B1, the “stoichiometry N” value in data set [1] came to 2; in data set [2] it was 4.
